The other results are listed elsewhere or left out.
What was measured:
Test in all cases: glycan array binding signal (z-score within array); higher = stronger binding
Settings in all cases: glycan notation: IUPAC condensed, linker removed
[1] = biological target: Fuc(a1-2)Gal
Outline: (§1)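 Arrays were curated from the Consortium for Functional Glycomics database, 3228 in total, and kept only where the protein sequence was available. Binding is expressed as a within-array Z-score. This score was averaged across arrays of the same protein sequence at different concentrations or buffers and across linkers, and negative values can be read as non-binding.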

[2] = biological target: Fuc(a1-2)Gal(b1-3)GalNAc
Outline: as §1

[3] = biological target: Fuc(a1-2)Gal(b1-3)GalNAc(a1-3)[Fuc(a1-2)]Gal(b1-4)Glc
Outline: as §1

[4] = biological target: Fuc(a1-2)Gal(b1-3)GalNAc(a1-3)[Fuc(a1-2)]Gal(b1-4)GlcNAc
Outline: as §1

[5] = biological target: Fuc(a1-2)Gal(b1-3)GalNAc(b1-3)Gal
Outline: as §1

[6] = biological target: Fuc(a1-2)Gal(b1-3)GalNAc(b1-3)Gal(a1-4)Gal(b1-4)Glc
Outline: as §1

[7] = biological target: Fuc(a1-2)Gal(b1-3)GalNAc(b1-4)[Neu5Ac(a2-3)]Gal(b1-4)Glc
Outline: as §1

[8] = biological target: Fuc(a1-2)Gal(b1-3)GlcNAc
Outline: as §1

[9] = biological target: Fuc(a1-2)Gal(b1-3)GlcNAc(b1-2)Man(a1-3)[Fuc(a1-2)Gal(b1-3)GlcNAc(b1-2)Man(a1-6)]Man(b1-4)GlcNAc(b1-4)GlcNAc
Outline: as §1

[10] = biological target: Fuc(a1-2)Gal(b1-3)GlcNAc(b1-2)Man(a1-3)[Fuc(a1-2)Gal(b1-3)GlcNAc(b1-2)Man(a1-6)]Man(b1-4)GlcNAc(b1-4)[Fuc(a1-6)]GlcNAc
Outline: as §1

[11] = biological target: Fuc(a1-2)Gal(b1-3)GlcNAc(b1-3)Gal(b1-4)Glc
Outline: as §1

[12] = biological target: Fuc(a1-2)Gal(b1-3)GlcNAc(b1-3)GalNAc
Outline: as §1

[13] = biological target: Fuc(a1-2)Gal(b1-3)GlcNAc(b1-3)[Fuc(a1-2)Gal(b1-3)GlcNAc(b1-6)]GalNAc
Outline: as §1

[14] = biological target: Fuc(a1-2)Gal(b1-3)GlcNAc(b1-3)[Gal(b1-4)GlcNAc(b1-6)]Gal(b1-4)Glc
Outline: as §1

[15] = biological target: Fuc(a1-2)Gal(b1-3)GlcNAc(b1-3)[Neu5Ac(a2-6)Gal(b1-4)GlcNAc(b1-6)]Gal(b1-4)Glc
Outline: as §1

[16] = biological target: Fuc(a1-2)Gal(b1-3)GlcNAc6S
Outline: as §1

[17] = biological target: Fuc(a1-2)Gal(b1-3)[Fuc(a1-4)]GlcNAc
Outline: as §1

[18] = biological target: Fuc(a1-2)Gal(b1-3)[Fuc(a1-4)]GlcNAc(b1-2)Man(a1-3)[Fuc(a1-2)Gal(b1-3)[Fuc(a1-4)]GlcNAc(b1-2)Man(a1-3)]Man(b1-4)GlcNAc(b1-4)GlcNAc
Outline: as §1

[19] = biological target: Fuc(a1-2)Gal(b1-3)[Fuc(a1-4)]GlcNAc(b1-2)Man(a1-3)[Fuc(a1-2)Gal(b1-3)[Fuc(a1-4)]GlcNAc(b1-2)Man(a1-6)]Man(b1-4)GlcNAc(b1-4)[Fuc(a1-6)]GlcNAc(b1-4)[Fuc(a1-6)]GlcNAc
Outline: as §1

[20] = biological target: Fuc(a1-2)Gal(b1-3)[Fuc(a1-4)]GlcNAc(b1-3)[Fuc(a1-3)[Gal(b1-4)]GlcNAc(b1-6)]Gal(b1-4)Glc
Outline: as §1

[21] = biological target: Fuc(a1-2)Gal(b1-3)[Fuc(a1-4)]GlcNAc(b1-3)[Gal(b1-4)GlcNAc(b1-6)]Gal(b1-4)Glc
Outline: as §1

[22] = biological target: Fuc(a1-2)Gal(b1-4)Glc
Outline: as §1

[23] = biological target: Fuc(a1-2)Gal(b1-4)Glc6S
Outline: as §1

[24] = biological target: Fuc(a1-2)Gal(b1-4)GlcNAc
Outline: as §1

[25] = biological target: Fuc(a1-2)Gal(b1-4)GlcNAc(b1-2)Man
Outline: as §1

[26] = biological target: Fuc(a1-2)Gal(b1-4)GlcNAc(b1-2)Man(a1-3)[Fuc(a1-2)Gal(b1-4)GlcNAc(b1-2)Man(a1-6)]Man(b1-4)GlcNAc(b1-4)GlcNAc
Outline: as §1

[27] = biological target: Fuc(a1-2)Gal(b1-4)GlcNAc(b1-2)Man(a1-3)[Fuc(a1-2)Gal(b1-4)GlcNAc(b1-2)Man(a1-6)]Man(b1-4)GlcNAc(b1-4)[Fuc(a1-6)]GlcNAc
Outline: as §1

[28] = biological target: Fuc(a1-2)Gal(b1-4)GlcNAc(b1-2)[Fuc(a1-2)Gal(b1-4)GlcNAc(b1-4)]Man(a1-3)[Fuc(a1-2)Gal(b1-4)GlcNAc(b1-2)Man(a1-6)]Man(b1-4)GlcNAc(b1-4)GlcNAc
Outline: as §1

[29] = biological target: Fuc(a1-2)Gal(b1-4)GlcNAc(b1-3)Gal(b1-4)GlcNAc
Outline: as §1

[30] = biological target: Fuc(a1-2)Gal(b1-4)GlcNAc(b1-3)Gal(b1-4)GlcNAc(b1-2)Man(a1-3)[Fuc(a1-2)Gal(b1-4)GlcNAc(b1-3)Gal(b1-4)GlcNAc(b1-2)Man(a1-6)]Man(b1-4)GlcNAc(b1-4)GlcNAc
Outline: as §1

[31] = biological target: Fuc(a1-2)Gal(b1-4)GlcNAc(b1-3)Gal(b1-4)GlcNAc(b1-3)Gal(b1-4)GlcNAc
Outline: as §1

[32] = biological target: Fuc(a1-2)Gal(b1-4)GlcNAc(b1-3)GalNAc
Outline: as §1

[33] = biological target: Fuc(a1-2)Gal(b1-4)GlcNAc(b1-3)[Fuc(a1-2)Gal(b1-4)GlcNAc(b1-6)]GalNAc
Outline: as §1

[34] = biological target: Fuc(a1-2)Gal(b1-4)GlcNAc(b1-3)[Fuc(a1-3)[Gal(b1-4)]GlcNAc(b1-6)]Gal(b1-4)Glc
Outline: as §1

[35] = biological target: Fuc(a1-2)Gal(b1-4)GlcNAc(b1-6)GalNAc
Outline: as §1

[36] = biological target: Fuc(a1-2)Gal(b1-4)GlcNAc6S
Outline: as §1

[37] = biological target: Fuc(a1-2)Gal(b1-4)[Fuc(a1-3)]GlcNAc
Outline: as §1

[38] = biological target: Fuc(a1-2)Gal(b1-4)[Fuc(a1-3)]GlcNAc(b1-2)Man(a1-3)[Fuc(a1-2)Gal(b1-4)[Fuc(a1-3)]GlcNAc(b1-2)Man(a1-6)]Man(b1-4)GlcNAc(b1-4)[Fuc(a1-6)]GlcNAc
Outline: as §1

[39] = biological target: Fuc(a1-2)Gal(b1-4)[Fuc(a1-3)]GlcNAc(b1-2)[Fuc(a1-2)Gal(b1-4)[Fuc(a1-3)]GlcNAc(b1-4)]Man(a1-3)[Fuc(a1-2)Gal(b1-4)[Fuc(a1-3)]GlcNAc(b1-2)Man(a1-6)]Man(b1-4)GlcNAc(b1-4)GlcNAc
Outline: as §1

[40] = biological target: Fuc(a1-2)Gal(b1-4)[Fuc(a1-3)]GlcNAc(b1-3)Gal(b1-4)[Fuc(a1-3)]GlcNAc
Outline: as §1

[41] = biological target: Fuc(a1-2)Gal(b1-4)[Fuc(a1-3)]GlcNAc(b1-3)Gal(b1-4)[Fuc(a1-3)]GlcNAc(b1-3)Gal(b1-4)[Fuc(a1-3)]GlcNAc
Outline: as §1

[42] = biological target: Fuc(a1-2)Gal(b1-4)[Fuc(a1-3)]GlcNAc(b1-3)GalNAc
Outline: as §1

[43] = biological target: Fuc(a1-2)Gal(b1-4)[Fuc(a1-3)]GlcNAc(b1-3)[Neu5Ac(a2-6)Gal(b1-4)GlcNAc(b1-6)]Gal(b1-4)Glc
Outline: as §1

[44] = biological target: Fuc(a1-2)Gal3S(b1-4)GlcNAc
Outline: as §1

[45] = biological target: Fuc(a1-2)Gal6S(b1-3)GlcNAc
Outline: as §1

B1: Pwp2 (Candida glabrata) (protein)
chain: MGSSHHHHHHSSGLVPRGSHMASKNPVELNNVCTFPNDYGRIPGFTVLVGRLGLLISASDYKELLRYPGAFLIATQDTMTTSPNFELTGFPFFTGLYGLTVFPLDLLVELRGYFVPPNSGQYTFTLSDSDDAAIIFLGNPSAFPCGDLQNWPKPSEEDITVTDHLFPSRTLYLIEGVAYPMRIAYYNGIGAGRLNAAFIDPSGTRHTNWEGYIWQYDPCSTCTYS
Question: Which “glycan array binding signal (z-score)” value [1] does the source give for B1 here?
Answer: -0.501

Question: And the “glycan array binding signal (z-score)” value [2]?
Answer: -0.523

Question: And the “glycan array binding signal (z-score)” value [3]?
Answer: -0.495

Question: What about the “glycan array binding signal (z-score)” value [4] of the same binder?
Answer: -0.104

Question: And the “glycan array binding signal (z-score)” value [5]?
Answer: -0.059

Question: What about the “glycan array binding signal (z-score)” value [6] of the same binder?
Answer: -0.108

Question: What about the “glycan array binding signal (z-score)” value [7] of the same binder?
Answer: -0.132

Question: What about the “glycan array binding signal (z-score)” value [8] of the same binder?
Answer: -0.778

Question: And the “glycan array binding signal (z-score)” value [9]?
Answer: 2.37

Question: What about the “glycan array binding signal (z-score)” value [10] of the same binder?
Answer: -0.263

Question: What about the “glycan array binding signal (z-score)” value [11] of the same binder?
Answer: -0.416

Question: And the “glycan array binding signal (z-score)” value [12]?
Answer: -0.399

Question: What about the “glycan array binding signal (z-score)” value [13] of the same binder?
Answer: 1.29

Question: And the “glycan array binding signal (z-score)” value [14]?
Answer: -0.594

Question: What about the “glycan array binding signal (z-score)” value [15] of the same binder?
Answer: -0.401

Question: What about the “glycan array binding signal (z-score)” value [16] of the same binder?
Answer: 2.25

Question: What about the “glycan array binding signal (z-score)” value [17] of the same binder?
Answer: -0.451

Question: And the “glycan array binding signal (z-score)” value [18]?
Answer: 0.102

Question: And the “glycan array binding signal (z-score)” value [19]?
Answer: 6.32

Question: And the “glycan array binding signal (z-score)” value [20]?
Answer: -0.522

Question: What about the “glycan array binding signal (z-score)” value [21] of the same binder?
Answer: -0.414

Question: What about the “glycan array binding signal (z-score)” value [22] of the same binder?
Answer: -0.29

Question: What about the “glycan array binding signal (z-score)” value [23] of the same binder?
Answer: -0.376

Question: And the “glycan array binding signal (z-score)” value [24]?
Answer: -0.966

Question: What about the “glycan array binding signal (z-score)” value [25] of the same binder?
Answer: -0.406

Question: And the “glycan array binding signal (z-score)” value [26]?
Answer: -0.397

Question: And the “glycan array binding signal (z-score)” value [27]?
Answer: -0.088

Question: And the “glycan array binding signal (z-score)” value [28]?
Answer: 1.24

Question: What about the “glycan array binding signal (z-score)” value [29] of the same binder?
Answer: 0.356

Question: What about the “glycan array binding signal (z-score)” value [30] of the same binder?
Answer: 0.852

Question: What about the “glycan array binding signal (z-score)” value [31] of the same binder?
Answer: 0.261

Question: And the “glycan array binding signal (z-score)” value [32]?
Answer: -0.48

Question: What about the “glycan array binding signal (z-score)” value [33] of the same binder?
Answer: 3.01

Question: What about the “glycan array binding signal (z-score)” value [34] of the same binder?
Answer: 0.384

Question: And the “glycan array binding signal (z-score)” value [35]?
Answer: -0.293

Question: And the “glycan array binding signal (z-score)” value [36]?
Answer: -0.464

Question: And the “glycan array binding signal (z-score)” value [37]?
Answer: -0.132

Question: What about the “glycan array binding signal (z-score)” value [38] of the same binder?
Answer: -0.003

Question: And the “glycan array binding signal (z-score)” value [39]?
Answer: 0.016

Question: What about the “glycan array binding signal (z-score)” value [40] of the same binder?
Answer: -0.673

Question: What about the “glycan array binding signal (z-score)” value [41] of the same binder?
Answer: -0.086

Question: And the “glycan array binding signal (z-score)” value [42]?
Answer: -0.225

Question: And the “glycan array binding signal (z-score)” value [43]?
Answer: -0.401

Question: What about the “glycan array binding signal (z-score)” value [44] of the same binder?
Answer: 2.57

Question: And the “glycan array binding signal (z-score)” value [45]?
Answer: -0.476

Reference: the supplement of paper PMC8728848
